# Assay results published in PubChem BioAssay AID2147 (National Center for Advancing Translational Sciences (NCATS), 2009).
# The whole screen tested about 230,000 compounds, of which about 3,600 (1.6%) were called active. Inconclusive means that the source gave no clear call. Such entries were picked first, then a sample of the others. The call rests on the fitted dose curve; in most records, active means well fitted inhibition curve with a large enough effect (not every such curve was filed as active); inconclusive means small, poorly fitted or top-dose-only effect, or another doubt; inactive means no such curve, though single readings can be large or run the other way. Potencies of inconclusive entries are doubtful fits and often do not repeat.
# Biological target: Lysine-specific demethylase 4E (Homo sapiens) (UniProt B2RXH2)
# Chain of UniProt B2RXH2 (B2RXH2 whole entry, looked up, the tested form may be a part): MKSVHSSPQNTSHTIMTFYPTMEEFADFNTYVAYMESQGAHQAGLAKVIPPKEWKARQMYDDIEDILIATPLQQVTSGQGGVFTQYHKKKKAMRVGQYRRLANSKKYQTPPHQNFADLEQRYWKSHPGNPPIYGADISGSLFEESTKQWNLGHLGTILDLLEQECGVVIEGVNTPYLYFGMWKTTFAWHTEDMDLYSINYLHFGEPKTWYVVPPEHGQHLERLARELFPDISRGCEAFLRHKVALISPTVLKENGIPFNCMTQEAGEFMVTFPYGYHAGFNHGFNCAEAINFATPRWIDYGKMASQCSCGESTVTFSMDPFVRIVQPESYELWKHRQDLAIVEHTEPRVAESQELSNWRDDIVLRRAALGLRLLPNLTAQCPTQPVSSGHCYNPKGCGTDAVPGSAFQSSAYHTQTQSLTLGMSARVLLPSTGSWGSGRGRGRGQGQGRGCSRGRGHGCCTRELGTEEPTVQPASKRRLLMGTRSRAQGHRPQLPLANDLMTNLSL
# Experiment: qHTS Assay for Inhibitors of Human Jumonji Domain Containing 2E (JMJD2E)
# Details: JMJD2E catalytic domain, FDH-coupled NADH fluorescence (FDH is formaldehyde dehydrogenase); series mostly up to 57.1 µM; activity change, negative = inhibition: at the top concentration
# Further: nearly all actives have a fitted effect of over 50% in size.
# Potency means the concentration at half of the fitted maximal effect; tags describe the fitted curve by direction and shape.
# 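Wherever activity change, negative = inhibition is given: 0% = wells with enzyme and -100% = buffer wells without enzyme.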
SMILES,Potency,"activity change, negative = inhibition"
CC(=O)Oc1ccc(C(=O)[C@H]2[C@H]3C(=O)N(c4ccc5ccccc5c4)C(=O)[C@H]3[C@@H]3C=CC=NN32)cc1,"inconclusive: 39.8 µM [inhibitor, single point]",–
c1ccc(-c2cc(N3CCOCC3)nc3ccccc23)cc1,"inconclusive: 31.6 µM [inhibitor, partial curve]",–
CCc1ccccc1OCC(=O)Nc1nc(-c2cccnc2)cs1,"inconclusive: 39.8 µM [inhibitor, single point]",–
CCN1/C(=C\C=C(C(C)=O)C(C)=O)Sc2ccccc21,–,inactive: -3.35%
NS(=O)(=O)c1ccc(CCNCc2cccs2)cc1,"inconclusive: 39.8 µM [inhibitor, single point]",–
C=C(C)C(=O)Nc1cccc(C2=NOC3(C2)C[C@H](C(N)=O)N(C(=O)CC#N)C3)c1 (some centres not stated),"inconclusive: 39.8 µM [inhibitor, single point]",–
Cc1cc(=O)oc2cc(OCc3ccc(C(=O)OCC(=O)N(C)C4CCS(=O)(=O)C4)cc3)ccc12 (configuration not stated),"inconclusive: 25.1 µM [inhibitor, partial curve]",–
CC(C)Cn1c(-c2cccs2)nc2nc3ccccc3nc21,"inconclusive: 35.5 µM [inhibitor, partial curve]",–
N#Cc1c(-c2ccccc2)nc(N2CCCCCC2)[nH]c1=O,"inconclusive: 35.5 µM [inhibitor, single point]",–
COc1ccc(-c2[nH]c3ccccc3c2SCCNC(=O)c2cc3ccccc3oc2=O)cc1,–,inactive: -12.2%
COc1cc2c3nnc(-c4ccc(F)cc4)c-3cn(Cc3ccc(F)cc3)c2cc1OC,"inconclusive: 35.5 µM [inhibitor, single point]",–
CC(C)OC(=O)CCC/C=C\C[C@@H]1[C@@H](CC[C@@H](O)CCc2ccccc2)[C@H](O)C[C@@H]1O,"inconclusive: 25.1 µM [inhibitor, single point]",–
Cc1ccc2cc(CN(Cc3ccccc3)Cc3nnnn3C3CCCC3)c(=O)[nH]c2c1,"inconclusive: 39.8 µM [inhibitor, single point]",–
N/C(=N\OC(=O)Nc1cccc(C(F)(F)F)c1)c1ccno1,"inconclusive: 39.8 µM [inhibitor, single point]",–
CCOc1cc(CNc2ccc3cn[nH]c3c2)ccc1OC,"inconclusive: 35.5 µM [inhibitor, single point]",–
COc1ccc(Nc2nnc(-c3ccc(C)cc3)c3ccccc23)cc1C(=O)N1CCCCC1,"inconclusive: 39.8 µM [inhibitor, single point]",–
O=c1oc2cc([N+](=O)[O-])ccc2nc1/C=C(\O)c1cccc(Br)c1,"inconclusive: 39.8 µM [inhibitor, single point]",–
